As a reminder, the inhibition is the relative decrease from the control value, in per cent.

The campaign covered roughly 340,000 compounds. About 6,900 (2%) were called active. Cut-off read from the data, not from the text of the source: active = inhibition above about 30%; inactive = below that, where a call was filed. The entries are a selection whose mix differs from that of the whole data set. Where no call is shown, the source filed none.

The target of this assay is D(2) dopamine receptor (Homo sapiens) (UniProt P14416). Briefly: HTS Assay for Allosteric Antagonists of the Human D2 Dopamine Receptor: Primary Screen for Antagonists. Note: 0% is about no effect. The note with it: HEK293 TREx D2 cells, calcium flux, dopamine EC80; at 10 µM; stronger effect = higher value. The method, boiled down: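 Dopamine at EC80 is the agonist stimulus; test compounds precede it by 180 s. Calcium flux read kinetically in a force-coupled, inducible HEK293 T-REx D2 cell line.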
Chain of UniProt P14416 (P14416 whole entry, looked up): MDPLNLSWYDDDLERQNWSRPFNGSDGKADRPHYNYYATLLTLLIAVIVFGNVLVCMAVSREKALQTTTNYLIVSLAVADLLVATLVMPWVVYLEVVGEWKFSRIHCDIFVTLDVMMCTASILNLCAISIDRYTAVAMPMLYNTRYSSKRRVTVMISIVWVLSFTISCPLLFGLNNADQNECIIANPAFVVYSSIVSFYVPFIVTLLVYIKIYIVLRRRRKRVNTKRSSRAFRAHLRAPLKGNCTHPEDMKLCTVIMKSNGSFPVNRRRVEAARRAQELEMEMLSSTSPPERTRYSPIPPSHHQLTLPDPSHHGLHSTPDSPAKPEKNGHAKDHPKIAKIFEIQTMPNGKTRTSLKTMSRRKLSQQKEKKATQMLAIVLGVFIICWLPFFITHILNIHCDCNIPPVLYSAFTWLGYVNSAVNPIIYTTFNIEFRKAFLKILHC
Consider `O=C(NC(=S)Nc1nc2c(s1)CCCC2)c1ccccc1`, for which the inhibition is active: 34.8%.
Then `Cc1cccc(C(=O)NC2CC3CCCC(C2)N3Cc2ccccc2)c1` (stereo unspecified), with active: 81.5%.
Then `CCC1CN(C(=O)N2CCC(C(=O)NCCC3=CCCCC3)CC2)c2cc(C)ccc2O1` (stereo unspecified), with -10.9%.
Then `CCn1cc2nc(SCc3ccc(C)cc3)n(CCc3ccccc3)c(=O)c2n1`, with -5.88%; and `COc1ccc(S(=O)(=O)N(CC(=O)N(C)Cc2ccccc2)c2ccc(Cl)cc2)cc1`, with -16.9%; and `Cc1ccc(OCC(=O)Nc2ccc(Cl)c(-c3nc4ccccc4[nH]3)c2)cc1C`, with -9.15%.
Regarding `Cc1ccc(-c2nc3ccccn3c2Nc2c(C)cccc2C)o1`, the inhibition was 19%.
Then `CC1CCc2c(sc3nnn(Cc4ccccc4)c(=O)c23)C1` (stereo unspecified), with -8.99%.
Then `Cc1ccc(NS(=O)(=O)c2ccc3[nH]c4c(c3c2)CCCC4)c(C)c1`, with -10.3%; and `Cc1nnc(N2CCCC(C(=O)Nc3ccccc3C(F)(F)F)C2)c2nn(-c3ccccc3)c(C)c12` (stereo unspecified), with 3.99%; and `CCOc1ccccc1N1CC(c2nc3ccccc3n2CCOc2ccc(OC)cc2)CC1=O` (stereo unspecified), with 9.43%.
Then `COc1ccc(CNC(=O)c2cc(-c3cccs3)nc3ccccc23)c(OC)c1`, with -11.4%; and `CCOC(=O)c1sc(NC(=O)c2nc3ncccn3n2)c(C(=O)OC(C)C)c1C`, with -1.5%.
For the compound `Cc1ccc(C)c(N2CCN(C(=O)c3cc4c(=O)n(Cc5cccnc5)ccc4nc3C)CC2)c1`, the inhibition is 6.82%.
Under `O=C(c1ccc(Cl)cc1)N1CCCCC1CCN1CCOCC1` (stereo unspecified) stands -11.3%.
Then `Cc1cccc(CSc2nc3cccnc3n2Cc2ccc(C(=O)NCc3cccs3)cc2)c1`, with 2.11%; and `O=C(CCN1CCc2ccccc2C1)Nc1cccc(F)c1`, with active: 60.1%.
Then `Cc1cc(C)n(-c2nc3cc(Cl)c(Cl)cc3nc2Nc2ccc(F)cc2C)n1`, with -0.573%.
As to `Cc1cccc(C(=O)Nc2c(-c3ccc(F)cc3)nc3ccccn23)c1`, the inhibition was -14.1%.
With `CCn1c(=O)c2cc(C(=O)Nc3cc(C)c(Cl)cc3OC)sc2c2ccccc21`, the inhibition was -9.84%.
Turning to `Cc1ccc(NC(=O)c2cc3c(Cl)nc4ccc(C)cc4c3s2)c(Cl)c1`, the inhibition came out at 4.58%.
Then `COc1ccc(NC(=O)CSc2nc3ccccc3n2CC(=O)N2CCCC(C)C2)cc1` (stereo unspecified), with 12.9%; and `CCOC(=O)c1c(C)[nH]c(C2=NNC(=NC(C)COC)SC2)c1C` (stereo unspecified), with active: 36%; and `CC(C)Cn1c(=O)c2sccc2n2c(CCCC(=O)NCC(C)c3ccccc3)nnc12` (stereo unspecified), with 11.3%.
With `O=C(CSc1oc(-c2ccccc2)nc1S(=O)(=O)c1ccc(Br)cc1)NC1CCCCC1`, the inhibition was -13%.
For `CC(=O)Nc1nonc1-c1nnc(SCc2ccccc2C)n1C`, the inhibition turned out to be 14.3%.
Under `COc1ccc(CNC(=O)c2ccc3c(c2)N(Cc2ccccc2F)C(=O)c2ccccc2S3=O)cc1` (stereo unspecified) stands -2.61%.
Under `Cc1ccc(C2=Nc3ccccc3N(CC(=O)NCc3ccc(Cl)cc3)C(=O)C2)cc1C` stands -5.04%; under `COc1ccc(OC)c(NC(=O)Cc2c(C(=O)O)[nH]c3ccc(Cl)cc23)c1`, 14.8%.
Take `CCc1ccccc1NC(=O)Cc1ccc(-n2c(C)nc3cccnc32)cc1`: the inhibition is 8.94%.
Then `COc1cccc(-c2ccc3c(N)c(C(=O)Nc4ccc(Cl)cc4F)sc3n2)c1`, with 12.1%; and `CCc1ccc(Nc2nn3c(=O)c4cc5c(cc4nc3s2)OCO5)cc1`, with -6.51%.
On to `COC(=O)c1cc2oc3ccccc3c2n1Cc1nc(-c2cccc(Cl)c2)oc1C`, for which the inhibition was -10.9%.
Then `Cc1ccc(-n2nc3c(N4CCC(C(=O)N5CCC(C)CC5)CC4)nnc(C)c3c2C)cc1`, with 3.71%; and `COc1cc(OC)cc(C(=O)Nc2ccc(S(=O)(=O)N3CCCCC3c3cccnc3)cc2)c1` (stereo unspecified), with 20.3%; and `O=C(Nc1cccc(Cl)c1Cl)c1cc(S(=O)(=O)N2CCC3(CC2)OCCO3)ccc1F`, with 7.29%.
Then `Cc1cc(C)c(Cn2c3ccccc3c3cnn(CC(=O)NC4CCCCCC4)c(=O)c32)c(C)c1`, with -6.46%; and `COc1ccc(Cn2cc(C(=O)c3ccc(Cl)cc3)c(=O)c3cc4c(cc32)OCO4)cc1`, with -1.03%.
Then `CCOC(=O)c1ccc(NC(=O)c2ccc3c(c2)c(C)c(C)n3Cc2ccc(F)cc2)cc1`, with -3.74%; and `CCOC(=O)C1(C)C=C(Nc2ccc(OC)cc2)C(=O)N1c1ccccc1` (stereo unspecified), with -15.5%; and `COc1ccccc1NC(=O)c1oc2ccccc2c1NC(=O)c1c(F)cccc1F`, with -16.8%.
Turning to `Cc1cc(C)cc(NC(=O)C2CCCN2S(=O)(=O)c2ccc3c(c2)C(C)(C)C(=O)N3C)c1` (stereo unspecified), the inhibition was -7.82%.
Then `COc1ccc(NC(=O)CSc2ncnc3sc(C)cc23)cc1`, with active: 31.7%.
Under `COc1ccc(C(=O)NCCn2cc(SCC(=O)Nc3ccccc3)c3ccccc32)cc1OC` stands 3.78%; under `CN1CCc2ccccc2Cc2[nH]c3ccccc3c2CC1`, active: 72%; under `Cn1c(=O)n(C)c2cc(N3CCCCC3)c(NC(=O)c3ccc(Cl)cc3)cc21`, -17.7%.
As to `COc1cc(OC)c(NC(=O)c2c(C)nn(-c3ccc(C)cc3)c2-n2cccc2)cc1Cl`, the inhibition was -8.74%.
Consider `O=C(CSCC(=O)NC1CC1)Nc1ccc2ccccc2c1`, for which the inhibition was active: 34.7%.
As to `CCCCn1cc(S(=O)(=O)c2ccc(CC)cc2)c(=O)c2cc(F)c(N3CCCC(C)C3)cc21` (stereo unspecified), the inhibition stood at 0.987%.
Then `COc1ccccc1CCNC(=O)c1ccc(NC(=O)N2CC(C)Sc3ccccc32)cc1` (stereo unspecified), with -6.77%; and `Cc1ccc(C(=O)CSc2nc3cc(C(=O)NC4CCCC4)ccc3c(=O)n2CC2CCCO2)cc1` (stereo unspecified), with -0.373%; and `CSc1cccc(NS(=O)(=O)c2ccc3[nH]cc(C(=O)N4CCCC4)c(=O)c3c2)c1`, with 5.44%.
As to `COc1ccc(OC)c(NC(=O)c2ccc(-c3nc(CSc4ccccc4)c(C)o3)cc2)c1`, the inhibition is 3.01%.
With `CC(C)(C)C(=O)Cn1c(=O)n(CCCCCC(=O)NCc2ccc3c(c2)OCO3)c(=O)c2sccc21`, the inhibition was -16.6%.
Turning to `O=C(COc1ccc2c(c1)OCO2)Nc1ccc2c(c1)oc1ccccc12`, the inhibition was active: 37%.
Then `Cc1ccc(NC(=O)CSc2nccn2C2CCCC2)cc1`, with -8.85%; and `Cc1ccc(NC(=O)Cn2cc(S(=O)(=O)c3ccc(F)cc3)c(=O)c3cc4c(cc32)OCO4)cc1`, with 9.66%.
Then `CCOc1ccccc1C1CC(=O)NC(C)=C1C(=O)OC1CCCCCC1` (stereo unspecified), with 5.86%; and `COc1ccc(NC(=O)C2CCCN(S(=O)(=O)c3cn(C)cn3)C2)cc1Cl` (stereo unspecified), with 1.13%; and `COc1ccc(-n2c3c(c(=O)[nH]c2=O)C(NC(C)=O)(C(F)(F)F)C(=O)N3)cc1` (stereo unspecified), with 7.17%.
Under `Cc1cccc(Oc2nc3ccccn3c(=O)c2/C=C(\C#N)c2nc3ccccc3s2)c1C` stands -2.12%.

The values above are taken from PubChem BioAssay AID485344 (National Center for Advancing Translational Sciences (NCATS), 2010).
